Data: article PMC11336835 (Heliyon, 2024)

Test system: colorectal adenocarcinoma cell line (DLD-1)
Conditions: ratio of DLD-1 IC50 to M. tuberculosis IC50

## Cc1c2oc3c(C)ccc(C(=O)N[C@@H]4C(=O)N[C@H](C(C)C)C(=O)N5CCC[C@H]5C(=O)N(C)CC(=O)N(C)[C@@H](C(C)C)C(=O)O[C@@H]4C)c3nc-2c(C(=O)N[C@@H]2C(=O)N[C@H](C(C)C)C(=O)N3CCC[C@H]3C(=O)N(C)CC(=O)N(C)[C@@H](C(C)C)C(=O)O[C@@H]2C)c(N)c1=O [F5(23), actinomycin D] (I: T[dV]P[Sar][NMeV] / II: T[dV]P[Sar][NMeV]; ester I:1-I:C, II:1-II:C; linker I:N-II:N via Actinocin(9to1))
  Selectivity index (DLDI/M. tuberculosis): >1,100

*1 amine or outer side, *2 acyl side, *3 side chain or, on linkers, in order; H or OH if unused. Where a SMILES comes first, the peptide text is derived from it. Bridges are numbered along the chain shown (N, C = ends). Roman numbers before positions name the chains, in order. [ ]: non-standard residue; d: D form. Actinocin(9to1) = Cc1c2oc3c(C)ccc(C(=O)[*:1])c3nc-2c(C(=O)[*:2])c(N)c1=O; NMeV = CN[C@H](C(=O)O)C(C)C; Sar = CNCC(=O)O
